Test results as given in article PMC4336329 (PLoS ONE, 2015).
Hit rate of the full screen: of about 310,000 compounds, about 2,200 (0.71%) showed an effect of 50% or more. The effect is printed as a negative number. The list shows a part of the results.

Molecular target: human ether-à-go-go-related gene (hERG) potassium channel (human, UniProt Q12809)
Test: primary screen, population patch clamp on CHO cells stably expressing hERG

Chain of human ether-à-go-go-related gene (hERG) potassium channel (Q12809 whole entry, looked up): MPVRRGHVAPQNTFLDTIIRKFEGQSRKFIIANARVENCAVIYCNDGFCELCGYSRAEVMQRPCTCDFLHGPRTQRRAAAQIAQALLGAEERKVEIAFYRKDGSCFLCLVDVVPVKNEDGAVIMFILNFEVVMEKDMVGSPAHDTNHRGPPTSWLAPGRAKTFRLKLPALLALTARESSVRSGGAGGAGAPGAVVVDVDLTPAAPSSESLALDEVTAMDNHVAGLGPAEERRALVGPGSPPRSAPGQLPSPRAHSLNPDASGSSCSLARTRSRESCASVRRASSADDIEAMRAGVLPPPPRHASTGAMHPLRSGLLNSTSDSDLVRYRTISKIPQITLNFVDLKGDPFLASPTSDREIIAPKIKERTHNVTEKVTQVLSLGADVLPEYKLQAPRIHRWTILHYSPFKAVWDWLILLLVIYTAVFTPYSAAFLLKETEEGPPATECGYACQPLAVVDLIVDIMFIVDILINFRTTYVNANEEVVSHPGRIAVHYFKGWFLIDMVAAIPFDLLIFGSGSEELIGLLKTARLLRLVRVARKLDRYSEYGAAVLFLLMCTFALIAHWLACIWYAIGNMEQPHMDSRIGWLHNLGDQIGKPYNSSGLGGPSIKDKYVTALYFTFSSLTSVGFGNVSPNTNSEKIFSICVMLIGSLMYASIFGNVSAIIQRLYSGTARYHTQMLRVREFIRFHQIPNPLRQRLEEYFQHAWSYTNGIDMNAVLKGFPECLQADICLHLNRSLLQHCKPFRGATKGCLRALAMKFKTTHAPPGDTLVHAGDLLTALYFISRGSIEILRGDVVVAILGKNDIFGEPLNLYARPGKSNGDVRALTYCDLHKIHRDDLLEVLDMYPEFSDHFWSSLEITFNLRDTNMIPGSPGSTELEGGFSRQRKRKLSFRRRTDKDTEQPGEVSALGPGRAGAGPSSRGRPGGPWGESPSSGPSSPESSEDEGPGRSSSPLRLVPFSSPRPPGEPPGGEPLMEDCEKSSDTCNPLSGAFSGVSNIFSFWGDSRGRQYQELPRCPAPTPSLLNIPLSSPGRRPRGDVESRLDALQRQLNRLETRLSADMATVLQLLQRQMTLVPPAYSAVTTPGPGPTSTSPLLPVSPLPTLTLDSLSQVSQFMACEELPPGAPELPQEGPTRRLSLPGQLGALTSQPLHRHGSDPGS

SMILES	hERG current change (%, negative = inhibition) at 1uM
COc1ccc(OC)c(S(=O)(=O)NNC(=S)Nc2ccc3c(c2)OCO3)c1	1.35%
O=C(NCCCN1CCOCC1)Nc1ccc(Cc2ccc(NC(=O)NCCCN3CCOCC3)cc2)cc1	6.69%
CCOc1ccc(CCNC(=O)c2nnc(CS(=O)(=O)c3ccccc3)o2)cc1OCC	8.59%
COc1cc(O)oc1C=Nc1ccc(C(F)(F)F)cc1	5.11%
C/C=C(\C)C(=O)N[C@@H](c1ccccc1)[C@@H](O)C(=O)O[C@H]1C[C@@]2(O)[C@@H](OC(=O)c3ccccc3)C3[C@](C)(C(=O)[C@H](O)C(=C1C)C2(C)C)[C@@H](O)C[C@H]1OC[C@@]31OC(C)=O (stereo partly drawn)	7.74%
CCOC(=O)COc1ccccc1/C=N/Nc1nnc2c3ccccc3n(C)c2n1	15.4%
CC(=O)Nc1ccc(S(=O)(=O)NNc2ccc([N+](=O)[O-])cc2)cc1	9.73%
Br.CC(=O)c1sc(Nc2ccc(C)cc2)nc1C	11.6%
CC(C)C(=O)NC(Nc1ccc(S(N)(=O)=O)cc1)C(Cl)(Cl)Cl (stereo not drawn)	1.29%
CCNC(=S)N(Cc1cc2cc(C)ccc2[nH]c1=O)C1CCCC1	6.05%
CC(=O)NC(Cc1c[nH]c2ccccc12)C(=O)OCC(=O)Nc1cc(C)on1 (stereo not drawn)	9.67%
CC(=O)/C=C(/C)NC(Cc1c[nH]c2ccccc12)C(=O)O (stereo not drawn) [3713680]	10.1%
CNC(=O)C(=O)NCC1OCCN1S(=O)(=O)c1ccc([N+](=O)[O-])cc1 (stereo not drawn)	2.47%
COc1cccc(C2c3c(C)nn(-c4ccc([N+](=O)[O-])cc4)c3N=C3C(=O)Nc4ccccc4N32)c1 (stereo not drawn)	9.71%
Cc1ccccc1-c1cc(C(=O)Nc2sc(C)c(C)c2C(N)=O)c2ccccc2n1	14.3%
COc1ccc(OC)c(CNC(=O)CCc2nc(-c3cccs3)no2)c1	12.8%
CN(C)C1=NCCN1CCC1CCCC1	4.29%
Cc1cc(NC(=O)NC2CCCN2S(=O)(=O)c2ccc(Cl)cc2)no1 (stereo not drawn)	-8.64%
C=CCn1c(Sc2nc(C)cs2)nc2c1c(=O)[nH]c(=O)n2C	9.98%
O=C(Cn1nc(-c2ccccc2)ccc1=O)NCCCN1CCOCC1	3.63%
CCO[C@@H]1OC(C(=O)Nc2ccccc2)=C[C@H](c2ccccc2)[C@H]1CCCO	11.5%
COc1ccc(C(=O)NC(=S)NC(C)c2ccccc2)cc1 (stereo not drawn)	13.7%
CCCCNCc1nc2ccccc2c(=O)[nH]1.Cl	12.7%
CCN(CC)S(=O)(=O)c1ccc(N(C)Cc2ccc(C(F)(F)F)cc2)nc1	10.7%
CCOc1cc(C(=O)NC(C)CCc2ccccc2)cc(OCC)c1OCC (stereo not drawn)	6.56%
O=C(O)c1cc(N/N=C/c2ccncc2)ccc1Cl	5.3%
Cc1ccc([N+](=O)[O-])cc1NC(=O)c1ccc(-c2ccccc2)cc1	8.42%

SMILES	hERG current change (%, negative = inhibition) at 1uM
O=C(C1=C(O)C(=O)N(CCN2CCOCC2)C1c1ccc(F)cc1)c1cc2ccccc2o1 (stereo not drawn)	8.81%
Cc1ccc(N2CC(=O)N(NC(=O)Nc3ccc(Cl)c(Cl)c3)CC2=O)cc1	4.68%
CCC(C)(C)NC(=O)C(c1ccccc1F)N(Cc1ccco1)C(=O)c1csnn1 (stereo not drawn)	-1.71%
CCOC(=O)c1c(C)c(C(=O)NC(C)COC)c(C)n1CC (stereo not drawn)	-2.56%
CCOc1ccc(CN2CCNC(=O)C2CC(=O)N(C)Cc2nonc2C)cc1 (stereo not drawn)	12.1%
COc1ccc(C(CC(=O)Nc2ccc(C)cn2)N2Cc3ccccc3C2=O)cc1 (stereo not drawn)	5.62%
CN=C1S/C(=C\c2ccc(SC)cc2)C(=O)N1C	16.5%
Cc1ccc(CCNC(=O)CN2CCN(Cc3ccccc3F)C2=O)cc1	6.24%
Cc1cccc2cc(C3CC(c4cccs4)=NN3C(=O)CCC(=O)O)c(Cl)nc12 (stereo not drawn)	-1.16%
COc1cc2nc(CSc3ncn[nH]3)[nH]c(=O)c2cc1OC	12.5%
COc1cc(NC(=O)C(=O)Nc2ccc3nc4n(c(=O)c3c2)CCCCC4)cc(OC)c1OC	11%
COc1ccccc1CNC1CCCc2ccccc21.O=C(O)C(=O)O (stereo not drawn)	11.2%
Cc1ccc(NC(=O)c2cc(C(C)(C)C)nn2Cc2ccccc2)cc1	-0.288%
CC(C)c1ccc(C(C(=O)NC2CCCCC2)N(C(=O)c2ccccn2)c2cccnc2)cc1 (stereo not drawn)	13.5%
CCC(C)NC(=O)CCSc1ccc(C)cc1 (stereo not drawn)	9.62%
CCOc1ccc(-c2nnn(CC(=O)NCc3ccc(F)cc3)n2)cc1OCC	-2.25%
CCOC(=O)c1sc(SCC(=O)Nc2ccc(N(C)C)cc2)nc1N	9.91%
CCNC(=O)C1OC(n2cnc3c(N)ncnc32)C(O)C1O (stereo not drawn)	8.87%
CC[C@@](C)(NS(=O)(=O)OCC(Cl)(Cl)Cl)c1ccccc1	2.3%
COc1cc(C2C(C(C)=O)=C(O)C(=O)N2CCN(C)C)ccc1O (stereo not drawn)	8.74%
Nc1ccc(-n2cnc3cc([N+](=O)[O-])ccc32)cc1	8.92%
CC(=O)Nc1cccc(NC(=O)CSc2nc(=O)n(CCCN3CCOCC3)c3c2CCC3)c1	9.44%
Cc1ccccc1NC(=O)c1cn2c(nc3ccccc32)c(C#N)c1C	9.11%
O=C(Nc1cccnc1Cl)c1ccc(=O)oc1	12.5%
CCCn1cnc2c(sc3nc4c(cc32)CSC(C)(C)C4)c1=O	9.79%
COc1ccc(Nc2cc3n(c(=O)n2)CCc2cc(OC)c(OC)cc2-3)cc1	7.64%
Cc1c(C(=O)N(C)c2ccccc2)oc2c1C(O)CC(C)(C)C2 (stereo not drawn)	13.5%
